Results: publication PMC6919601, “Identification of Plasmodium dipeptidyl aminopeptidase allosteric inhibitors by high throughput screening” (PLoS ONE, 2019)
Where “and” joins values, the source holds several entries; their conditions need not be identical. Identical values can stand only once. Among all 110,000 compounds or so, about 230 (0.21%) showed an effect of 50% or more. The list shows a part of the results.

Molecular target: DPAP1 (Plasmodium falciparum, UniProt Q8IIJ9)
Assay: primary screen, percent inhibition; read by cleavage of a fluorogenic dipeptide substrate; higher = more effect of the substance
Parameters: species or system P. falciparum D10 trophozoite lysates; single well
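Also: 30 min substrate incubation versus DMSO and 10 µM JCP410 controls.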

Chain of DPAP1 (Q8IIJ9 whole entry, looked up): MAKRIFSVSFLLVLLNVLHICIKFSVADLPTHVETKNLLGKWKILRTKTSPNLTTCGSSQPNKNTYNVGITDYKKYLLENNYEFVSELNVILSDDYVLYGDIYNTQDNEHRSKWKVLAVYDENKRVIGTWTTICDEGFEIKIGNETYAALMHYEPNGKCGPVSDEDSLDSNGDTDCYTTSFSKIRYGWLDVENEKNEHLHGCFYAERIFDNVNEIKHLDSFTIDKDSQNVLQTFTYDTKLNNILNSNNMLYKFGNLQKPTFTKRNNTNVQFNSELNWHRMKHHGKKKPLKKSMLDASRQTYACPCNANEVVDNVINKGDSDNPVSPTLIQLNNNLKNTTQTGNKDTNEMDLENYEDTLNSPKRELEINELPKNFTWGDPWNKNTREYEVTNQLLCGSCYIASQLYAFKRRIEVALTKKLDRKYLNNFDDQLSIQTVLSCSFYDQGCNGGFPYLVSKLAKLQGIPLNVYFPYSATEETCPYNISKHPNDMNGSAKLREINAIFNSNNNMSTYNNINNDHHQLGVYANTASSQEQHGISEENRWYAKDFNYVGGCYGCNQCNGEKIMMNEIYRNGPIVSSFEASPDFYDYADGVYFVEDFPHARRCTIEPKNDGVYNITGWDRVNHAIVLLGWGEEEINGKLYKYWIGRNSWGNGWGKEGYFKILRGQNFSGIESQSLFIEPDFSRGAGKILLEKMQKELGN

| SMILES | % Inhibition @ 10 uM |
| --- | --- |
| CC1=C(C(=O)Nc2ccc(Cl)cc2)C(c2ccc(O)cc2)n2nc(CCCO)nc2N1 (stereo not shown) | -6.67% |
| Cc1ccc(-c2cc(C(F)(F)F)n3ncc(C(=O)N(C)Cc4cn(C)nc4C)c3n2)cc1 | 3.89% |
| Cc1ccc2nc(Nc3nc(C)c(Cc4ccccc4)c(O)n3)nc(C)c2c1 | 5.49% |
| Cn1c2ccccc2c2cnn(CC(=O)NCCCN3CCC(Cc4ccccc4)CC3)c(=O)c21 | 1.41% |
| COc1cccc2c1OC(c1ccncc1)N1N=C(c3ccccc3O)CC21 (stereo not shown) | 0.0719% |
| O=c1c2c3c(sc2[nH]c(=S)n1-c1ccc(Cl)cc1)CCC3 | 62.5% |
| Cc1ccc(C2C(c3ccc(S(=O)(=O)N(C)C)cc3)=C(O)C(=O)N2CCCN2CCOCC2)cc1 (stereo not shown) | 4.74% |
| CC1CCCC(C)N1CCNc1nc2ccccc2c2nc(-c3ccccc3)nn12 (stereo not shown) | -2.42% |
| Cc1ccc(-n2nnc(-c3nsc(NC(=O)c4cccs4)n3)c2C)cc1 | 0.399% |
| Cn1c(Cc2ccccc2)nc2ccccc21 | -3.61% |
| O=C(c1ccc2c(c1)OCO2)N1CCN(c2ccc(Cl)cc2)CC1 | -2.56% and -2.74% |
| CCOC(=O)C1CCN(C2CCN(CCc3ccccc3)CC2)CC1 | 6.26% |
| Cc1ccc2cc(CCNS(=O)(=O)c3ccc(Br)cc3)c(O)nc2c1 | 0.8% |
| O=C(O)c1ccc(CNS(=O)(=O)c2cccc(C(F)(F)F)c2)cc1 | 1.86% |
| Cc1ccc(-c2c(C#N)c(S)nc3c2CCCC3)o1 | 37.9% |
| Cc1ccc(-c2onc(C)c2C)cc1S(=O)(=O)N(C)Cc1ccco1 | -6.66% |
| CC(C)c1ccccc1NC(=O)COc1ccccc1 | -8.53% |
| CNC(=O)c1[nH]cnc1C(=O)Nc1ccc(OC)cc1 | -0.992% |
| COc1ccc(C2C3=C(O)CC(C)(C)CC3=Nc3ccccc3N2C(=O)C(F)(F)F)c(OC)c1 (stereo not shown) | 0.385% |
| C=CCn1c(Cc2c[nH]c3ccccc23)nnc1SCC(=O)NCc1ccccc1 | 0.238% |
| O=C(NCCCN1CCOCC1)c1ccc2c(Cl)c3c(nc2c1)CCCC3 | 0.809% |
| COc1ccccc1CNC(=O)c1sc2nc(-c3ccc(F)cc3)ccc2c1N | -1.6% |

| SMILES | % Inhibition @ 10 uM |
| --- | --- |
| Cc1ccc2c(c1)c1c3n2CCN(C/C(=N/O)c2ccc(Br)cc2)C3CCC1 (stereo not shown) | 2.13% |
| COc1ccc(-c2noc(CSc3nnc(-c4ccc(Cl)cc4)n3C)n2)cc1 | 7.5% |
| C1=C(c2c[nH]c3ccccc23)CCNC1 | 1.63% |
| CCC(C)c1ccc(NC(=O)Cc2cccs2)cc1 (stereo not shown) | 3.94% |
| COc1ccc(CNC(=O)c2cc3c(Cl)ccc4c3n2CCO4)cc1 | -3.84% |
| Cc1nn(C(C)C(=O)NC2CCCCCC2)c(=O)c2cc3sccc3n12 (stereo not shown) | 3.4% |
| O=C(NCCN1CCCC1)c1ccc(Br)cc1 | -9.31% |
| CCCNC(=O)c1nnc(-c2ccc3c(c2)OCO3)o1 | -10.4% |
| O=C(NCCc1c[nH]c2ccccc12)c1c(F)cccc1F | -1.43% |
| CCc1ccc(CNCc2c(C(=O)O)n(CC)c3cc(C)ccc23)cc1 | 0.436% |
| N#CCCn1c2ccc(Cl)cc2c2cc(Cl)ccc21 | -1.97% |
| CCN(C(=O)c1ccccc1OC)c1nc(-c2ccc(C)cc2)cs1 | 1.72% |
| CC1CCCCN1S(=O)(=O)c1ccc(C(=O)Nc2nc3c(s2)CSc2ccccc2-3)cc1 (stereo not shown) | 0.343% |
| COc1ccc(OCC(=O)Nc2cccnc2)cc1 | 3.79% |
| Cc1ccc(Cl)cc1NC(=O)COc1ccc(S(=O)(=O)NC(C)(C)C)cc1 | -4.12% |
| c1ccc(CSc2ccc(-c3cccs3)nn2)cc1 | -0.256% |
| O=C(CSc1nc2ccc(Cl)cc2o1)Nc1nc(-c2ccccc2)no1 | -0.92% |
| C[C@@H]1CC2(CCCN2Cc2ccccc2)C[C@H]1C | -2.45% |
| O=C(c1cnn(-c2ccccc2)c1-n1cccc1)N1CCc2ccccc2C1 | 3.2% |
| Cc1cc2cc(CO)c(O)nc2cc1C | 2.05% |
| CN1CCc2c(sc(N)c2C(N)=O)C1 | 2.22% |
| Cc1cccc(OCC(=O)NCc2ccc(F)cc2)c1 | -10% |

| SMILES | % Inhibition @ 10 uM |
| --- | --- |
| O=C(COc1ccccc1)Nc1ccc(S(=O)(=O)N2CCCC2)cc1 | 2.39% |
| O=C(Nc1cccnc1)C1CC(c2ccccc2F)=NO1 (stereo not shown) | 1.24% |
| CCc1nc2ccccc2n1CCCOc1ccc(C)cc1 | 2.73% |
| CCOCCCNC(=O)CSc1nc2nc(C)cc(C)n2n1 | -4.29% |
| NS(=O)(=O)c1cccc(NS(=O)(=O)c2ccc(Cl)c([N+](=O)[O-])c2)c1 | 3.06% |
| COc1ccc(Br)cc1CN1CCCN(C)CC1 | -2.56% |
| COc1ccc(C2CC(O)=C/C(=N/c3ccc(C)c(C)c3)C2)cc1OC (stereo not shown) | 0.674% |
| COc1ccc(-c2cc(C(F)(F)F)n3nc(C(=O)N(C)Cc4cn(C)nc4C)cc3n2)cc1OC | -2.29% |
| CCOC(=O)N1CCC(NC(=O)C2CCCN(Cc3nc(-c4ccc(CC)cc4)oc3C)C2)CC1 (stereo not shown) | -1.05% |
| Cc1ccsc1CN(C(=O)COc1c(F)c(F)c(F)c(F)c1F)C1CCS(=O)(=O)C1 (stereo not shown) | 2.19% |
| CN(C)c1ccc(-c2nc(S)nc(O)c2C#N)cc1 | -0.0217% |
| OC(C#CC12CC3CC(CC(C3)C1)C2)c1cccnc1 (stereo not shown) | -6.83% |
| CN(C1CCCCC1)S(=O)(=O)N1CCCC(C(=O)NCc2ccccc2Cl)C1 (stereo not shown) | -2.56% |
| OCC(C#CCN1CCCC1)NCc1ccccc1 (stereo not shown) | -3.81% |
| FC(F)(F)c1ccccc1CNCC1NCCc2ccccc21 (stereo not shown) | 1.01% |
| CC[C@H](NC(=O)[C@H](CC(C)(C)C)N[C@@H](c1ccc(F)cc1)C(F)(F)Sc1ccc(F)cc1)C(=O)c1nc2ccccc2o1 | -1.5% |
| CO/C(O)=C1\Sc2ccccc2N=C1C | -0.436% |
| COc1ccc(C2(C(=O)N3CCCC3)CCOCC2)cc1 | -2.75% |
| COc1ccc(-c2c(N)n[nH]c2C)cc1 | -5.47% |
| COc1cc(C(C2=C(O)CC(C)(C)CC2=O)C2C(=O)CC(C)(C)CC2=O)cc(OC)c1OC (stereo not shown) | -3.1% |
